The term % Inhibition denotes the change of the read-out against control, counted positive when it falls.

This note sets out measurements from ChEMBL document CHEMBL4888484, “Replenishing the malaria drug discovery pipeline: Screening and hit evaluation of the MMV Hit Generation Library 1 (HGL1) against asexual blood stage Plasmodium falciparum ,using a nano luciferase reporter read-out” (2022).

The whole screen tested about 150,000 compounds, of which about 540 (0.36%) showed an effect of 50% or more. The list shows a part of the results.

The test system of this test is Plasmodium falciparum. Kind of test: Primary screen in NF54 nanoGlo assay, in single point, at 2uM, 72h; a lower Z score goes with more inhibition. It counts as functional, Erythrocyte. The following applies: timepoint 72 hour.
For the compound `Cc1ccc(NC(=O)CN(C)S(=O)(=O)c2c[nH]c(C(=O)N3CCCCCC3)c2)c(Cl)c1`, the “% Inhibition” value worked out at 8% and the Z score is given as -0.83.
The matching figures for `CS(=O)(=O)NCCn1nc(-c2cnccn2)cc1C1CC1`: 32% and -0.66.
For the compound `C=C(C)CN=C(N)Nc1ccccc1COC`, the “% Inhibition” value is listed as -14% and the Z score was found to be 1.43.
As for `Cc1ccc([C@@H](NC(=O)CN2CCOCC2)c2cccnc2)c(C)c1`, the “% Inhibition” value amounted to 3% and the Z score was -0.54.
Taken in the same sequence, the figures for `CC(C)(C)c1ccc(OCCNC(=O)CN2CCC(=O)NC2=O)cc1` were -4% and 0.86.
The matching figures for `c1cn(C2CCCN(CCOC3CCCCO3)C2)nn1` (centres undefined): -4% and 0.62.
For `CNc1ncc(CN(C)C(=O)CCc2cc(C)cc(C)c2)cn1`, the “% Inhibition” value is reported as -1% and the Z score worked out at 0.11.
Take `CN(CCn1cccn1)Cc1ncc(Br)cc1O`: the “% Inhibition” value was -1% and the Z score was determined as 0.1.
The matching figures for `O=C(NC[C@H]1CCS(=O)(=O)C1)c1ccc(Cl)cc1Cl`: -6% and 0.91.
For the compound `CCC(C)n1ncc(NC(=O)N2CCC3C(CCCN3C)C2)c1C1CC1` (centres undefined), the “% Inhibition” value was found to be 10% and the Z score was -1.11.
Taken in the same sequence, the figures for `O=C(COC(=O)c1ccc(Cl)cc1)Nc1ccc2c(c1)CCC2` were -8% and 1.44.
Taken in the same sequence, the figures for `CC1OCCCC1C(=O)N(CCC(=O)O)Cc1ccccc1` (centres undefined) were -22% and 2.38.
Taken in the same sequence, the figures for `CC1(C)CCCN(C(=O)c2ccc3ncccc3c2)[C@@H]1C#N` were -13% and 1.27.
For the compound `Cc1nnc(CN(C)C[C@@H]2C[C@H](F)CN2Cc2cnn(C)c2)s1`, the “% Inhibition” value is reported as -4% and the Z score turned out to be 0.78.
Turning to `COc1cccc(-c2n[nH]c3c2CN(c2cc(C(N)=O)ccn2)CC3)c1`, the “% Inhibition” value stood at 4% and the Z score was -0.76.
Taken in the same sequence, the figures for `Cc1ccc(C)c(N2CCN(C(=O)c3c(-c4ccccc4)nnc4ccc(C)cc34)CC2)c1` were -12% and 1.65.
For `O=C(NS(=O)(=O)[C@H]1CCCOC1)c1ccc(Br)o1`, the “% Inhibition” value is on record as 9% and the Z score was -1.12.
Taken in the same sequence, the figures for `c1coc(-c2nnc([C@H]3CCN(Cc4cc5ccccc5o4)C3)o2)c1` were -3% and 0.43.
The matching figures for `Cc1csc(C(=O)NCC2(c3ccsc3)CCOCC2)c1`: 12% and -1.82.
The matching figures for `CN(C)C(=O)N(CCNC(=O)c1ccsc1)C1CCOCC1`: -8% and 1.27.
Regarding `COc1ccc(-n2ccnc2-c2cc3ccccc3[nH]c2=O)c(OC)n1`, the “% Inhibition” value was determined as 1% and the Z score was -0.13.
Taken in the same sequence, the figures for `CCC[C@@H]1C[C@H]1C(=O)NCc1oc(C(C)C)nc1C` were -7% and 0.98.
The matching figures for `CCN1C[C@@H](CN(C)C(=O)c2cc(C(F)F)n[nH]2)CC1=O`: 2% and -0.25.
Consider `CCCCN(C)S(=O)(=O)NCc1ccc2c(c1)nc(C)n2C1CC1`, for which the “% Inhibition” value was -6% and the Z score stood at 1.04.
Taken in the same sequence, the figures for `COc1ccc(CNC(=O)C2CCN(c3ncnc4oc(C)c(C)c34)CC2)c(OC)c1` were -10% and 1.03.
Taken in the same sequence, the figures for `Cc1nc(N2C[C@H](NC(=O)CCC(F)(F)F)[C@@H](C(C)C)C2)no1` were -8% and 1.55.
Turning to `COc1ccc(C(NC(=O)c2cncn2C)[C@H]2C[C@@H](O)C2)cc1F` (some centres undefined), the “% Inhibition” value is recorded as 12% and the Z score was -1.93.
Taken in the same sequence, the figures for `CCCN(C(=O)c1ccncc1)[C@H]1CC(=O)N(C)C1=O` were -12% and 2.22.
With `CC(C)(C)c1ccc(-c2cc(C(=O)N[C@H]3CCC[C@@H]3OCc3ccccc3)no2)cc1`, the “% Inhibition” value is reported as -22% and the Z score worked out at 1.9.
As for `COc1cccc2c1CCCCN2C(=O)[C@H](C)c1cncnc1`, the “% Inhibition” value is -8% and the Z score stood at 1.
Taken in the same sequence, the figures for `CN(C)CCN(C(=O)C1CC2CCC1C2)C1CCCCC1` (centres undefined) were -8% and 1.56.
With `CCc1nc(-c2cc(-c3ccccn3)n[nH]2)n(Cc2ccc3c(c2)OCO3)n1`, the “% Inhibition” value was -2% and the Z score stood at 0.34.
In the case of `COc1ccc(-n2cc([C@H](C)NC(=O)c3n[nH]c(N)c3Cl)cn2)cc1`, the “% Inhibition” value is -8% and the Z score worked out at 0.79.
Taken in the same sequence, the figures for `Cc1cnn([C@H]2CCN(C(=O)NCc3nn(C)c4ccccc34)C2)c1` were -44% and 5.16.
The matching figures for `O/N=C1/N[C@@H](/C=C/c2ccccc2)Nc2ccccc21`: -10% and 1.99.
The matching figures for `Cc1ccc(S(=O)(=O)NC[C@H]2CCCO2)cc1C(=O)NC1CCCCC1`: 0% and 0.05.
For `CN(C(=O)Nc1nc(C2CCOCC2)cs1)C1CCCC1C(C)(C)C` (centres undefined), the “% Inhibition” value is on record as 0% and the Z score was 0.05.
The matching figures for `Cc1ccc(N2CCCN(Cc3cccc(OC(F)(F)F)c3)C2=O)c(NC(=O)NCc2ccccc2)c1`: -8% and 0.78.
Taken in the same sequence, the figures for `Cc1cccc(CN2CCC[C@H](c3nnc(CN4CCCC4)n3C)C2)n1` were -6% and 1.07.
Taken in the same sequence, the figures for `CCc1noc(CCNC(=O)[C@@H]2CCCN2C(C)=O)n1` were -5% and 0.7.
In the case of `O=C(N[C@H]1CC[C@H](NC(=O)[C@@H]2CCCN2S(=O)(=O)c2cccc(C(F)(F)F)c2)CC1)c1ccccc1`, the “% Inhibition” value is reported as -12% and the Z score was 1.16.
Taken in the same sequence, the figures for `O=C1CCc2cc(C(=O)N3CCc4ncccc4C3)ccc2N1` were -3% and 0.42.
